{"source": "PubChem BioAssay (Tox21)", "key": {"[1]": {"biological_target": "Androgen receptor (Homo sapiens) (UniProt P10275)", "sequence (P10275 whole entry, looked up)": "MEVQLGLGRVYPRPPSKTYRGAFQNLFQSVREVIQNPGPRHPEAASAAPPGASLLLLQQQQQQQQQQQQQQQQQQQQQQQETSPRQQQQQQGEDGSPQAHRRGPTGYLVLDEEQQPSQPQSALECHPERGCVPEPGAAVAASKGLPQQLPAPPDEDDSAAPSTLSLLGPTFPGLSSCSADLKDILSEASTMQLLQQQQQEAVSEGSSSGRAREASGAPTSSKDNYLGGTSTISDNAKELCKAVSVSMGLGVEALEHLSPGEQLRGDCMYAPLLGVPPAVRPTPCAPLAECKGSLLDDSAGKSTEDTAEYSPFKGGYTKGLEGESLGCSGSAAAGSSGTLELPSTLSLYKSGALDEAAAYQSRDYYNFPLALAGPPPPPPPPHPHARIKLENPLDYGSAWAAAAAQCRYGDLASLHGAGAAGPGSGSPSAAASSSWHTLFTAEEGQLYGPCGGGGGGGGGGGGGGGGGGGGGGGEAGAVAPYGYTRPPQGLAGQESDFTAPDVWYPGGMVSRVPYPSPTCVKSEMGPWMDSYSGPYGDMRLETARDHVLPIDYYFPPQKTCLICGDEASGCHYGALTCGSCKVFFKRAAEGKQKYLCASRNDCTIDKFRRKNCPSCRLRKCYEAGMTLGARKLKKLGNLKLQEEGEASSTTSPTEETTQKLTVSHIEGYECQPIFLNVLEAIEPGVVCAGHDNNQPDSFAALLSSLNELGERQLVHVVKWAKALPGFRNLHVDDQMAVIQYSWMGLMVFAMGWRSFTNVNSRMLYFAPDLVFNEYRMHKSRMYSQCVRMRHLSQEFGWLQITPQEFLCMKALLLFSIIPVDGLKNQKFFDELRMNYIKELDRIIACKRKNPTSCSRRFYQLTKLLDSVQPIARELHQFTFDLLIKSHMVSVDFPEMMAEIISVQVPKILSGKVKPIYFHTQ", "experiment": "qHTS assay to identify small molecule antagonists of the androgen receptor (AR) signaling pathway (AID 743035; active means well fitted inhibition curve with a large enough effect in the signal ratio in the repeat runs, not every such curve was filed as active; inconclusive means weak or mixed curves, or effect the other way; inactive means no such curve, though single readings can be large or run the other way; the % refers to the signal ratio; further: on the % scale 0 is the no-effect control and ±100 the full control effect)", "conditions": "HEK293 AR-UAS-bla, R1881-stimulated, beta-lactamase FRET, 16 h; activity change, negative = inhibition: at 58.5 µM (top of the series) unless noted", "method_in_brief": "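HEK293 cells stably carrying a UAS-driven beta-lactamase reporter (AR-UAS-bla GripTite) were plated for 4 h at 37C, then given compound and the agonist R1881 and incubated 16 h. Reporter activity was read by LiveBLAzer B/G FRET fluorescence after 2 h at room temperature.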"}, "[2]": {"experiment": "qHTS assay to identify small molecule antagonists of the thyroid receptor (TR) signaling pathway - cell viability counter screen (AID 743064); further: on the % scale 0 is the no-effect control and ±100 the full control effect; nearly all actives have a fitted effect of over 50% in size", "conditions": "GH3.TRE-Luc viability, CellTiter-Fluor, 24 h; activity change, negative = cytotoxic: at 70.3 µM (top of the series) unless noted", "method_in_brief": "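Fluorescence from CellTiter-Fluor, added after 23.5 h exposure at 37 °C, reported viability of GH3.TRE-Luc cells co-treated with compound and 1 nM T3. Measured in the same wells as the luciferase TR readout.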"}, "[3]": {"test_system": "thyroid hormone receptor (rat, GH3 cells)", "experiment": "qHTS assay to identify small molecule agonists of the thyroid receptor (TR) signaling pathway (AID 743066; calls by dose curve; further: potency means the concentration at half of the fitted maximal effect; on activation: on the % scale 0 is the no-effect control and ±100 the full control effect)", "conditions": "GH3.TRE-Luc cells, TR agonist luciferase, 24 h; activation: at 83.9 µM (top of the series) unless noted"}, "[4]": {"biological_target": "Androgen receptor (Homo sapiens) (UniProt P10275)", "experiment": "qHTS assay to identify small molecule agonists of the androgen receptor (AR) signaling pathway (AID 743036; active means well fitted activation curve with a large enough effect in the signal ratio in the repeat runs, with a control signal flat, not every such curve was filed as active; inconclusive means weak or mixed curves, or effect the other way; inactive means no such curve, though single readings can be large or run the other way; the % refers to the signal ratio; further: potency means the concentration at half of the fitted maximal effect; on activation: on the % scale 0 is the no-effect control and ±100 the full control effect)", "conditions": "HEK293 AR-UAS-bla GripTite, beta-lactamase FRET ratio, 16 h; activation: at 62.4 µM (top of the series) unless noted", "method_in_brief": "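Fluorescence from a beta-lactamase FRET substrate served as read-out in AR-UAS-bla GripTite HEK293 cells. Cells were treated with DMSO-dissolved compounds for 16 h at 37C, then with LiveBLAzer B/G substrate for 2 h at room temperature.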"}, "[5]": {"biological_target": "Estrogen receptor (Homo sapiens) (UniProt P03372)", "sequence (P03372 whole entry, looked up)": "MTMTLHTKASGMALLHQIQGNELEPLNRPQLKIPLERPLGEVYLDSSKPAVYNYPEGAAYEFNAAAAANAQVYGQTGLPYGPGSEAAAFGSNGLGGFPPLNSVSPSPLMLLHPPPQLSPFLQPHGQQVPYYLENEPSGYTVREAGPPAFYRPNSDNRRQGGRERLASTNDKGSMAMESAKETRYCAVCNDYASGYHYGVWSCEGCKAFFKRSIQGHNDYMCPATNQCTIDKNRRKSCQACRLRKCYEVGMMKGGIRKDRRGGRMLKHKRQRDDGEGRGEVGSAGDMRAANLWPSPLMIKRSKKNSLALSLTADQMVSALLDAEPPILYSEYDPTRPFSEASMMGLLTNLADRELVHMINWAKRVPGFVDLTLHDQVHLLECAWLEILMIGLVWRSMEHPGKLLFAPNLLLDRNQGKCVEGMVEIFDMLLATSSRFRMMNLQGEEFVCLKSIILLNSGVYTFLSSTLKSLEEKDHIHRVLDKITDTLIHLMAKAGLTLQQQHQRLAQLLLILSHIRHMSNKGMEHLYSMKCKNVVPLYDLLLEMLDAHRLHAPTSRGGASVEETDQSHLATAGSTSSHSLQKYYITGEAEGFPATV", "experiment": "qHTS assay to identify small molecule agonists of the estrogen receptor alpha (ER-alpha) signaling pathway using the BG1 cell line (AID 743079); further: potency means the concentration at half of the fitted maximal effect; nearly all actives have a fitted effect of over 20% in size", "conditions": "BG1Luc4E2 cells, ERE-luciferase agonist, 22 h; activation: at 70.3 µM (top of the series) unless noted"}, "[6]": {"biological_target": "Aryl hydrocarbon receptor (Homo sapiens) (UniProt P35869)", "sequence (P35869 whole entry, looked up)": "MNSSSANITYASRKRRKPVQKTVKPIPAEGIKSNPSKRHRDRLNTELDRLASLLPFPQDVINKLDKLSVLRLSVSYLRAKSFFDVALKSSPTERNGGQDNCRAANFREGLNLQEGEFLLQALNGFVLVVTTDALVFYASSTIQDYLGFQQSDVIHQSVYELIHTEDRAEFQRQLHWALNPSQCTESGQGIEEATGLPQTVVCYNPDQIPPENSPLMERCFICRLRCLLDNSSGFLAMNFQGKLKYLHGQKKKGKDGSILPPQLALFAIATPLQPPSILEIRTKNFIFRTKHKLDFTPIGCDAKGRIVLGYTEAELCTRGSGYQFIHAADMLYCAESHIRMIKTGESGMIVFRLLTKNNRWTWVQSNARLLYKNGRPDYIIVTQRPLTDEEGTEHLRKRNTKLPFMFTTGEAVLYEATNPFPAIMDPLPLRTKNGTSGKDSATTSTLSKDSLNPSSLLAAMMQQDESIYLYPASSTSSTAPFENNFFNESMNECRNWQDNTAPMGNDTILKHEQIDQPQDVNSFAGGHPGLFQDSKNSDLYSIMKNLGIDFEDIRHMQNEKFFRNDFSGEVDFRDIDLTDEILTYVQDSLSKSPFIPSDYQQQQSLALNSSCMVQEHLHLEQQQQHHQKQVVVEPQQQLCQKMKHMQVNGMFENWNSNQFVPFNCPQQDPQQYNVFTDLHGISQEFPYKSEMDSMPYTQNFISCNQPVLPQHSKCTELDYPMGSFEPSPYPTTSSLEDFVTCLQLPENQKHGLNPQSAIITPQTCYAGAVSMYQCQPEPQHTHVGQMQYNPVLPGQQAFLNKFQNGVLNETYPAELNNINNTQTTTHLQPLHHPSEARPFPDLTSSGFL", "experiment": "qHTS assay to identify small molecule that activate the aryl hydrocarbon receptor (AhR) signaling pathway (AID 743085); further: potency means the concentration at half of the fitted maximal effect; nearly all actives have a fitted effect of over 15% in size", "method_in_brief": "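Cell line HG2L7.5c1 (human hepatoma, 20× DRE-luc). Plated, 5 h 37C, compound/DMSO added, 24 h 37C. CellTiter-Fluor 30 min 37C → fluorescence; then ONE-Glo 30 min RT → luminescence.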"}, "[7]": {"biological_target": "Androgen receptor (Homo sapiens) (UniProt P10275)", "experiment": "qHTS assay to identify small molecule antagonists of the androgen receptor (AR) signaling pathway using the MDA cell line (AID 743042; further: potency means the concentration at half of the fitted maximal effect; nearly all actives have a fitted effect of over 55% in size)", "method_in_brief": "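MDA-kb2 cells (human breast carcinoma, stably carrying an MMTV-luciferase reporter responsive to AR and GR) were plated at 3,000 cells/well and preincubated 5 hr at 37C, then given compound plus R1881 agonist for 16 h. ONE-Glo luminescence was read.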"}, "[8]": {"experiment": "qHTS assay to identify small molecule antagonists of the estrogen receptor alpha (ER-alpha) signaling pathway using the BG1 cell line (AID 743080; calls by dose curve; further: on the % scale 0 is the no-effect control and ±100 the full control effect; nearly all actives have a fitted effect of over 25% in size)", "conditions": "BG1Luc4E2 ERE-luciferase antagonist mode, luminescence; activity change, negative = inhibition: at 70.3 µM (top of the series) unless noted", "method_in_brief": "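BG1Luc4E2, endogenous ER-alpha, 4xERE-luc; 5 d charcoal-stripped FBS, phenol red free; 24 h plating; cpd + 17beta-estradiol 21.5 h, 37 C/5% CO2; CellTiter-Fluor viability 30 min, then ONE-Glo luciferase 30 min RT.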"}, "[9]": {"biological_target": "Estrogen receptor (Homo sapiens) (UniProt P03372)", "experiment": "qHTS assay to identify small molecule antagonists of the estrogen receptor alpha (ER-alpha) signaling pathway (AID 743069; active means well fitted curve in the direction sought with a large enough effect in the signal ratio in the repeat runs, not every such curve was filed as active; inconclusive means weak or mixed curves, or effect the other way; inactive means no such curve, though single readings can be large or run the other way; the % refers to the signal ratio; further: potency means the concentration at half of the fitted maximal effect; on activity, negative = inhibition: on the % scale 0 is the no-effect control and ±100 the full control effect)", "conditions": "HEK293 ER-alpha-UAS-bla, beta-lactamase ratio, antagonist mode; activity, negative = inhibition: at 69.4 µM (top of the series) unless noted", "method_in_brief": "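HEK293 cells stably carrying an ER-alpha-UAS-bla beta-lactamase reporter were pre-cultured overnight in 2% charcoal-stripped FBS medium. Test compounds in DMSO were added together with 17beta-estradiol for 18 hr at 37C. Read-out was fluorescence after 2 hr with LiveBLAzer B/G FRET substrate at room temperature.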"}, "[10]": {"biological_target": "Estrogen receptor (Homo sapiens) (UniProt P03372)", "experiment": "qHTS assay to identify small molecule agonists of the estrogen receptor alpha (ER-alpha) signaling pathway (AID 743075; calls by dose curve; further: potency means the concentration at half of the fitted maximal effect)"}, "Aromatase (Homo sapiens)": {"biological_target": "Aromatase (Homo sapiens) (UniProt P11511)", "sequence (P11511 whole entry, looked up)": "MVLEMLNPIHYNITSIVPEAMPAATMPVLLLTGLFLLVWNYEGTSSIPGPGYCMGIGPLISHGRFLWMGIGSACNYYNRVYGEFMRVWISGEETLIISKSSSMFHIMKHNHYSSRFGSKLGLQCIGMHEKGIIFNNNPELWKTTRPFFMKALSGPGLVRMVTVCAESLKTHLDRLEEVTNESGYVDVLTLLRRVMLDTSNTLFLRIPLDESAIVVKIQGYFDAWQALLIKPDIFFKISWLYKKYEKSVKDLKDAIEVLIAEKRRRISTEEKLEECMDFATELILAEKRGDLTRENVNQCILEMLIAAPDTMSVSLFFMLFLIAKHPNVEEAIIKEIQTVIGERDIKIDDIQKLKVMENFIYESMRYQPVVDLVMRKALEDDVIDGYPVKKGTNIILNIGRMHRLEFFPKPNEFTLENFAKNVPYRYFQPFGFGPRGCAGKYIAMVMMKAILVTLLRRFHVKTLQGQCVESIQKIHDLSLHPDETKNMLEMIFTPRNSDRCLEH", "experiment": "qHTS assay to identify aromatase inhibitors (AID 743083); further: potency means the concentration at half of the fitted maximal effect; nearly all actives have a fitted effect of over 55% in size", "conditions": "MCF-7 aro ERE, testosterone-driven ERE luciferase, 24 h; activity, negative = inhibition: at 70.3 µM (top of the series)"}, "[11]": {"biological_target": "Peroxisome proliferator-activated receptor gamma (Homo sapiens) (UniProt P37231)", "sequence (P37231 whole entry, looked up)": "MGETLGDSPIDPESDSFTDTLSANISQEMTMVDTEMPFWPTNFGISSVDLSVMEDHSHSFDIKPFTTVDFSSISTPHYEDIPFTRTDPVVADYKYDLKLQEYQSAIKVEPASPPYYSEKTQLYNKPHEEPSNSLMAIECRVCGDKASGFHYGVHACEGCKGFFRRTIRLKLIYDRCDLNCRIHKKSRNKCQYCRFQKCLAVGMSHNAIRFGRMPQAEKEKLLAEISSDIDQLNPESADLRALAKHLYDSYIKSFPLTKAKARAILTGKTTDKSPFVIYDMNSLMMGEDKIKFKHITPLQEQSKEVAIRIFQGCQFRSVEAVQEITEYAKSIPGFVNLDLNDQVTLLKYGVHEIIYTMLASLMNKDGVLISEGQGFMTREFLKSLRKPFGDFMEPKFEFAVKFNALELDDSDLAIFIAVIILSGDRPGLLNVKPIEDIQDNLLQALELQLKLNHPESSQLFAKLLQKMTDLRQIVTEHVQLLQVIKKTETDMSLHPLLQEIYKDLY", "experiment": "qHTS assay to identify small molecule agonists of the peroxisome proliferator-activated receptor gamma (PPARg) signaling pathway (AID 743094; active means well fitted activation curve with a large enough effect in the signal ratio in the repeat runs, not every such curve was filed as active; inconclusive means weak or mixed curves, or effect the other way; inactive means no such curve, though single readings can be large or run the other way; the % refers to the signal ratio; further: potency means the concentration at half of the fitted maximal effect)", "conditions": "HEK293H PPARg-UAS-bla, beta-lactamase FRET ratio, 17 h; activation: at 57 µM (top of the series) unless noted", "method_in_brief": "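GeneBLAzer PPARg UAS-bla HEK293H cells carrying a stably integrated beta-lactamase reporter were pre-incubated 5 h at 37C, then exposed to compounds in DMSO for 17 h at 37C; LiveBLAzer B/G FRET substrate was added for 1 h at room temperature and fluorescence read.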"}, "[12]": {"experiment": "qHTS assay to identify small molecule antagonists of the androgen receptor (AR) signaling pathway using the MDA cell line - cell viability counter screen (AID 743041; further: potency means the concentration at half of the fitted maximal effect; nearly all actives have a fitted effect of over 45% in size)", "conditions": "MDA-kb2 viability, CellTiter-Fluor, 16 h, cells co-treated with R1881 androgen agonist; viability change, negative = cytotoxic: at 70.3 µM (top of the series) unless noted", "method_in_brief": "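MDA-kb2 AR-luc human breast carcinoma cells (MMTV-luciferase, AR/GR responsive) were treated with compounds plus R1881 agonist for 16 h at 37 °C. Viability was read as CellTiter-Fluor fluorescence in the same wells as the reporter assay.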"}, "[13]": {"experiment": "qHTS assay to identify small molecule antagonists of the thyroid receptor (TR) signaling pathway (AID 743065); further: potency means the concentration at half of the fitted maximal effect; nearly all actives have a fitted effect of over 55% in size", "method_in_brief": "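GH3.TRE-Luc rat pituitary cells carrying two TR response elements driving luciferase were plated for 4 h, given compound plus 1 nM T3 (final), and incubated 23.5 h at 37 C. ONE-Glo luminescence measured reporter inhibition; CellTiter-Fluor fluorescence tracked cytotoxicity.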"}, "[14]": {"experiment": "qHTS assay to identify small molecule antagonists of the estrogen receptor alpha (ER-alpha) signaling pathway using the BG1 cell line - cell viability counter screen (AID 743081); further: potency means the concentration at half of the fitted maximal effect; nearly all actives have a fitted effect of over 45% in size", "conditions": "BG1Luc4E2 viability, CellTiter-Fluor, 22 h; activity change, negative = cytotoxicity: at 70.3 µM (top of the series)"}}, "note": "Values joined by “and” are separate entries in the source; they are usually repeats but may differ in a detail not shown here. Equal entries are not always repeated. Active and inactive are the calls of the source. Unless noted, the call rests on the fitted dose curve; in most records, active means well fitted curve in the direction sought with a large enough effect in the repeat runs; inconclusive means weak or mixed curves; inactive means no such curve, though single readings can be large; an effect the other way counts as inactive or inconclusive. Tags describe the fitted curve by direction and shape or compound fluorescence and quenching.", "data": [{"smiles": "CNC(=O)O/N=C(/CSC)C(C)(C)C", "values": [{"measurement": "Potency", "setting": "[1]", "value": "inactive"}, {"measurement": "Potency", "setting": "[2]", "value": "inactive"}, {"measurement": "Potency", "setting": "[3]", "value": "active: 61.1 µM"}]}, {"smiles": "CCOP(=S)(OCC)Oc1ncn(-c2ccccc2)n1", "values": [{"measurement": "activity change, negative = inhibition", "setting": "[1]", "value": "inconclusive: -24%"}, {"measurement": "Potency", "setting": "[4]", "value": "inactive"}, {"measurement": "Potency", "setting": "[5]", "value": "active: 54.5 µM"}, {"measurement": "Potency", "setting": "[6]", "value": "active: 24.3 µM"}]}, {"smiles": "COC(=O)C(C)N(C(=O)Cc1ccccc1)c1c(C)cccc1C", "note": "(stereo not drawn)", "values": [{"measurement": "Potency", "setting": "[4]", "value": "inconclusive: 43.6 µM [rising, partial curve, poor fit]"}, {"measurement": "Potency", "setting": "[7]", "value": "inconclusive: 68.6 µM [inhibitor, single point]"}, {"measurement": "Potency", "setting": "[8]", "value": "inactive"}]}, {"smiles": "N[C@@H]1C[C@H]1c1ccccc1", "values": [{"measurement": "Potency", "setting": "[1]", "value": "inactive"}, {"measurement": "Potency", "setting": "[2]", "value": "inactive"}, {"measurement": "Potency", "setting": "[8]", "value": "inactive"}, {"measurement": "Potency", "setting": "[6]", "value": "inconclusive: 18.8 µM [activator, partial curve, poor fit]"}]}, {"smiles": "BrCc1ccc(Br)cc1", "values": [{"measurement": "activation", "setting": "[4]", "value": "inconclusive: -9.24%"}]}, {"smiles": "COC(=O)N(C(=O)N1CO[C@@]2(C(=O)OC)Cc3cc(Cl)ccc3C2=N1)c1ccc(OC(F)(F)F)cc1", "values": [{"measurement": "Potency", "setting": "[4]", "value": "inconclusive: 42.2 µM [single point]"}, {"measurement": "Potency", "setting": "[7]", "value": "active: 23.5 µM"}, {"measurement": "Potency", "setting": "[3]", "value": "inactive"}, {"measurement": "Potency", "setting": "[9]", "value": "active: 47.3 µM [cytotoxic]"}, {"measurement": "Potency", "setting": "[10]", "value": "inconclusive: 37.6 µM [falling, partial curve]"}, {"measurement": "Potency", "setting": "[5]", "value": "inconclusive: 41.8 µM [inhibitor]"}, {"measurement": "Potency", "setting": "[8]", "value": "inactive"}, {"measurement": "Potency", "setting": "Aromatase (Homo sapiens)", "value": "inconclusive: 14.8 µM [inhibitor, full curve]"}, {"measurement": "Potency", "setting": "[11]", "value": "inconclusive: 18.8 µM [cytotoxic, full curve]"}]}, {"smiles": "COP(=S)(OC)Oc1ccc(Sc2ccc(OP(=S)(OC)OC)cc2)cc1", "values": [{"measurement": "Potency", "setting": "[4]", "value": "inconclusive: 0.49 µM [activator, single point]"}, {"measurement": "Potency", "setting": "[12]", "value": "inconclusive: 68.6 µM [cytotoxic]"}, {"measurement": "Potency", "setting": "[7]", "value": "inconclusive: 33.5 µM [inhibitor, single point]"}, {"measurement": "Potency", "setting": "[13]", "value": "inconclusive: 68.6 µM [inhibitor, single point]"}, {"measurement": "Potency", "setting": "[9]", "value": "active: 21.9 µM [inconclusive]"}, {"measurement": "activity, negative = inhibition", "setting": "[9]", "value": "inconclusive: -33.9%"}, {"measurement": "Potency", "setting": "[10]", "value": "inconclusive: 43.6 µM [falling, partial curve]"}, {"measurement": "Potency", "setting": "[5]", "value": "inconclusive: 33.5 µM [inhibitor, partial curve, poor fit] and inconclusive: 77 µM [inhibitor, single point]"}, {"measurement": "Potency", "setting": "[14]", "value": "inconclusive: 68.6 µM [cytotoxic, partial curve, poor fit]"}]}]}
